Assay results reported in PubChem BioAssay AID1466 (National Center for Advancing Translational Sciences (NCATS), 2008).
In all, about 200,000 compounds went through this assay and about 10 (0.005%) were called active. The shares of active, inactive and inconclusive entries below differ from those in the screen. Calls follow the shape of the dose curve; as a rule, active = well fitted inhibition curve with a large enough effect; inconclusive = small, poorly fitted or top-dose-only effect, or effect the other way, or another doubt; inactive = no such curve, though single readings can be large or run the other way. No potency is given beside an inconclusive call; the fits are too rough.

biological target: Lysosomal alpha-glucosidase (Homo sapiens) (UniProt P10253); test: qHTS Assay for Inhibitors of Human alpha-Glucosidase as a Potential Chaperone Treatment of Pompe Disease; details: purified human GAA, 4-MU-alpha-glucoside fluorescence; activity change, negative = inhibition: at 76.9 µM (top of the series) unless noted;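 as to activity change, negative = inhibition: plate controls were uninhibited enzyme wells for no effect and no-enzyme background for full effect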
Procedure, shortened: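 Fluorogenic assay: 4 nM human alpha-glucosidase with 400 uM 4-methylumbelliferyl-alpha-D-pyranoside in 50 mM citrate/phosphate, 0.005% Tween-20, pH 5.0, 20 min at room temperature. Compounds tested up to 77 uM; AC50 from Hill fits.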
Potency is read from the fitted curve at half-maximal effect; tags tell the direction and shape of the fitted curve.

Row | SMILES | Potency | activity change, negative = inhibition
1 | COc1ccccc1-c1c(C)oc2cc(OC(=O)c3ccco3)ccc2c1=O | inconclusive [activator, single point] | –
2 | CCC(C)c1ccc(OCCn2cc(/C=N/NC(=O)CSc3nnc(C)s3)c3ccccc32)cc1 (centres undefined) | – | inconclusive: -15.3% [inhibitor]
3 | COc1ccc(-n2nc([N+](=O)[O-])c(=NCCc3ccc(Cl)cc3)n2O)cc1 | inconclusive [inhibitor, full curve] | –
4 | COc1ccc(OC)c(Cc2nnc(CCC(=O)NCc3ccc(C)s3)o2)c1 | inactive | –
5 | COc1ccc(CN2CCC(=O)NC2=O)cc1 | inconclusive [activator, full curve] | –
6 | COc1ccc(N2CCN(C(=O)C3Cc4ccccc4CN3C(=O)c3ccccc3)CC2)cc1 (centres undefined) | inconclusive [inhibitor, partial curve] | –
7 | CN(C)c1ccc(NC(=O)Nc2cccc3ccccc23)cc1 | inconclusive [activator, full curve, poor fit] | –
8 | CCOC(=O)c1cc(C#N)c(SC)nc1C | inconclusive [inhibitor, partial curve, poor fit] | –
9 | C(=N\n1c2ccccc2c2ccccc21)/c1ccccc1 | inconclusive [inhibitor, single point] | –
10 | CCOC(=O)c1cc2c(=O)n3ccccc3nc2n(CCCOC)c1=NC(C)=O | inconclusive [activator, partial curve] | –
11 | COc1cc(SC)ccc1C(=O)NCCOc1c(C)cc(C)cc1C | inconclusive [activator, partial curve] | –
12 | CCCSc1nc(=O)n2cccc(C)c2n1 | inconclusive [activator, single point] | –
13 | O=C(Nc1ccccc1-c1nc2ccccc2s1)c1cccnc1Cl | – | inconclusive: 17.1% [activator]
14 | COc1cc(C(F)(F)F)nc(-c2ccccn2)n1 | inconclusive [inhibitor, partial curve] | –
15 | COc1cccc(CNCc2ccc(C(=O)O)cc2)c1OC | – | inconclusive: 15.1% [activator]
16 | C#C[C@]1(O)CC[C@H]2[C@@H]3CCc4cc(OC5CCCC5)ccc4[C@H]3CC[C@@]21C | inconclusive [inhibitor, single point] | –
17 | Cc1nnc(SCC(=O)O)s1 | inconclusive [activator, full curve, poor fit] | –
18 | CN(C)S(=O)(=O)Oc1cccc(C(=O)Nc2cccc(Cl)c2)c1 | inconclusive [inhibitor, single point] | –
19 | COc1cccc(/C=N/NC(=O)C(C)n2nc(C)c([N+](=O)[O-])c2C)c1O (centres undefined) | inactive | –
20 | Clc1ccc2nc(-c3ccccc3)c(CN3CCOCC3)n2c1 | inactive | –
21 | N#CNC(=Nc1ccccc1)SCc1ccc(C(=O)O)cc1 | inconclusive [inhibitor, single point] | –
22 | CCCNC(=O)NC(=O)CSc1nc2ccccc2n1CC(C)C | inconclusive [inhibitor, single point] | –

Row | SMILES | Potency | activity change, negative = inhibition
23 | Cc1csc(NC(=O)CCc2c(C)nc3cc(-c4ccc(Cl)cc4)nn3c2C)n1 | inconclusive [activator, partial curve] | –
24 | COC(=O)c1ccc(NC(=O)CSc2nncn2C)cc1 | – | inconclusive: -15.2% [inhibitor]
25 | CS(=O)(=O)N1CCN(C(=O)c2ccccc2)C1 | inconclusive [inhibitor, single point] | –
26 | O=C(CSc1nnc(COc2ccccc2)n1Cc1ccco1)c1ccc(F)cc1 | inconclusive [inhibitor, single point] | –
27 | CC(C)C(C)NC(=O)COc1ccc(Sc2ccc(OCC(=O)NC(C)C(C)C)cc2)cc1 (centres undefined) | inconclusive [inhibitor, single point] | –
28 | COc1ccc(/C=N/NC(=O)c2ccncc2)cc1Cn1nc([N+](=O)[O-])c(Br)c1C | inconclusive [inhibitor, single point] | –
29 | Cc1ccccc1N1CCN(Cc2c[nH]c3ccccc23)CC1 | inconclusive [inhibitor, partial curve] | –
30 | CNc1ccc(/C=C/C(=O)c2ccc3c(c2)OCCO3)cc1[N+](=O)[O-] | inconclusive [inhibitor, partial curve] | –
31 | CCc1ccc(NC(=O)C(NS(=O)(=O)c2cccc3nsnc23)c2ccccc2)cc1 (centres undefined) | inconclusive [inhibitor, single point] | –
32 | CNC(=O)c1cc2c(s1)-c1ccccc1CC2 | inconclusive [activator, partial curve] | –
33 | COc1ccccc1N1C(=O)c2ccccc2NC1C(OC)OC (centres undefined) | – | inconclusive: 15.6% [activator]
34 | COC(=O)c1cc(S(=O)(=O)Nc2cccc(S(N)(=O)=O)c2)oc1C | inconclusive [inhibitor, full curve, poor fit] | –
35 | COCc1cc(=O)n2[nH]c(-c3cccc(Br)c3)cc2n1 | – | inconclusive: 16.5% [activator]
36 | O=C(O)CC/C(=C\c1cccc(NC(=O)c2ccccc2Cl)c1)c1nc2ccccc2s1 | inconclusive [activator, single point] | –
37 | CCOc1ncccc1C(=O)OCC(=O)N1CCN(S(=O)(=O)c2ccccc2)CC1 | inconclusive [inhibitor, single point] | –
38 | COc1ccc(C2C=C(c3cccs3)Nc3nc(CCCO)nn32)cc1 (centres undefined) | inconclusive [activator, single point] | –
39 | O=C(OCCN1CCOCC1)c1cccnc1 | inconclusive [inhibitor, single point] | –
40 | CCCS(=O)(=O)N1CCN(S(=O)(=O)c2ccccc2)CC1 | inconclusive [inhibitor, full curve, poor fit] | –
41 | CCc1ccc2nc3n[nH]c(N)c3cc2c1 | inactive | –
42 | COc1ccc(Oc2nc(SC)nc3ccsc23)cc1 | inconclusive [inhibitor, partial curve] | –
43 | [O-]/C(=C(\C(=S)Nc1ccc(SC(F)F)cc1)[n+]1ccccc1)c1cc(Cl)ccc1Cl | inconclusive [inhibitor, single point] | –
44 | O=C(Cn1nnc2ccccc2c1=O)NCCc1ccccc1 | inconclusive [inhibitor, single point] | –

Row | SMILES | Potency | activity change, negative = inhibition
45 | O=C(Nc1ccccc1)c1c(F)c(F)c(F)c(F)c1F | inconclusive [inhibitor, single point] | –
46 | Cn1c(=O)c2c(nc(N3CCOCC3)n2Cc2c(F)cccc2Cl)n(C)c1=O | – | inconclusive: -19.7% [inhibitor]
47 | CCOC(=O)c1ccc(N2CCOCC2)c(NC(=O)c2c(-c3ccccc3)noc2C)c1 | inconclusive [inhibitor, single point] | –
48 | CCn1c(SCc2nc3scc(-c4ccccc4)c3c(=O)[nH]2)nnc1-c1cccs1 | – | inconclusive: -20.7% [inhibitor]
49 | Cc1cc(N2CCOCC2)nc2ccc(NC(=O)CCC(=O)N3CCCCC3)cc12 | inconclusive [activator, partial curve] | –
50 | Brc1ccc(C2=CC(c3cccs3)n3ncnc3N2)cc1 (centres undefined) | inconclusive [activator, single point] | –
51 | Cc1cc(C)c2c(c1)cc(C)c1nnc(SCC(=O)Nc3ccc(S(=O)(=O)N4CCCCC4)cc3)n12 | inconclusive [inhibitor, partial curve, poor fit] | –
52 | O=C(OCC#CCSc1nnc(-c2ccccc2)o1)c1cccs1 | inconclusive [inhibitor, single point] | –
53 | CC(=O)Nc1ccc(Nc2c([N+](=O)[O-])cc(S(C)(=O)=O)cc2[N+](=O)[O-])cc1 | inconclusive [inhibitor, full curve, poor fit] | –
54 | CCc1ccc(CC2(O)CC(C)N(C)CC2C)cc1 (centres undefined) | inconclusive [inhibitor, single point] | –
55 | COC(=O)C1(C)Nc2ccccc2C(=O)N1c1ccccc1OC (centres undefined) | inconclusive [activator, single point] | –
56 | C=CCN1CC2(c3ccccc3)CN(CC=C)CC(c3ccccc3)(C1)C2=O | inconclusive [inhibitor, single point] | –
57 | CSc1ncccc1C(=O)OCC(=O)Nc1ccc(S(=O)(=O)N2CCCC2)cc1 | inconclusive [inhibitor, single point] | –
58 | COc1ccc(-c2cc3nc(-c4ccccc4)cc(N4CCC5(CC4)OCCO5)n3n2)cc1 | inconclusive [activator, single point] | –
59 | O=C(CSc1ccccc1C(=O)O)NCc1ccccc1 | inconclusive [inhibitor, single point] | –
60 | CNC(=O)c1cc2cc(OC)ccc2oc1=N | inconclusive [activator, single point] | –
61 | O=C(c1ccc(Cl)c(Cl)c1)N1CCC(=O)N(C(COCc2ccccc2)Cc2ccccc2)CC1 (centres undefined) | inconclusive [inhibitor, single point] | –
62 | O=c1[nH]c2ccc(S(=O)(=O)N3CCCCC3)cc2[nH]1 | inconclusive [inhibitor, single point] | –
63 | COC(=O)c1ccc2c(=O)n(CCCCCC(=O)NCc3ccccc3)c(=O)[nH]c2c1 | inconclusive [activator, partial curve, poor fit] | –
64 | COc1ccc(C(=O)CSc2nnc(CN3CCCCC3)n2-c2ccc(F)cc2)cc1OC | inconclusive [inhibitor, single point] | –
